Results from patent publication US20170165373A1 (Amgen, published 2017).
Where two headings read alike, the source gives them in different places.

Legend:
[1] = target: T1, human BCMA (huBCMA), full length, on cells (human, UniProt Q02223 1-184); experiment: FACS, H929 cells
T1 construct: also called native huBCMA; B-cell maturation antigen
T1 chain: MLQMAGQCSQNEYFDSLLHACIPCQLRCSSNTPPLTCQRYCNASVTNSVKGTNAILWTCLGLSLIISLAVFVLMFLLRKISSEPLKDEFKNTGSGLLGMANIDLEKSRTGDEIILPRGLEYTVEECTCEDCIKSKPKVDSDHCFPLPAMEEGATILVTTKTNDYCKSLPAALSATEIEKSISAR

[2] = target: T1, human BCMA (huBCMA), full length, on …; experiment: cell-based or functional assay
[3] = target: T1, human BCMA (huBCMA), full length, on …; experiment: cell-based or functional assay
[4] = target: T1, human BCMA (huBCMA), full length, on …; experiment: FACS on H929 cells, native BCMA, relative binding, indirect
[5] = target: T1, human BCMA (huBCMA), full length, on …; experiment: cell-based or functional assay
[6] = target: T1, human BCMA (huBCMA), full length, on …; experiment: cell-based or functional assay

B1: 2A1 Covariance 1 (2A1_C107T) (antibody, human IgG1, lambda)
heavy: EVQLVESGGGLVKPGRSLRLSCTASGFTFGDYALSWFRQAPGKGLEWVGVSRSKAYGGTTDYAASVKGRFTISRDDSKSFAYLQMNSLKTEDTAVYYCTSSGYSSGWTPFDYWGQGTLVTVSS[omitted - human IgG1 constant region]
light: QSVLTQPPSASGTPGQRVTISCSGSSSNIGSNTVNWYQQLPGTAPKLLIFNYHQRPSGVPDRFSGSKSGSSASLAISGLQSEDEADYYCAAWDDSLNGWVFGGGTELTVLGQPKAAPSVTLFPPSSEELQANKATLVCLISDFYPGAVTVAWKADSSPVKAGVETTTPSKQSNNKYAASSYLSLTPEQWKSHRSYSCQVTHEGSTVEKTVAPTECS
notes: also called Ab-19
- EC50 (read off the curve) [1]: ~200 ng/mL
- ADCC EC50 [2]: 31 ng/mL
- ADCC EC50 [3]: 23.8 ng/mL

B2: 2A1CV5-MCC-DM1 (Ab-1 ADC) (other)
heavy: EVQLVESGGGLVKPGGSLRLSCAASGFTFGDYALSWFRQAPGKGLEWVGVSRSKAYGGTTDYAASVKGRFTISRDDSKSTAYLQMNSLKTEDTAVYYCASSGYSSGWTPFDYWGQGTLVTVSS[omitted - human IgG1 constant region]
light: QSVLTQPPSASGTPGQRVTISCSGSSSNIGSNTVNWYQQLPGTAPKLLIFNYHQRPSGVPDRFSGSKSGSSASLAISGLQSEDEADYYCAAWDDSLNGWVFGGGTKLTVLGQPKAAPSVTLFPPSSEELQANKATLVCLISDFYPGAVTVAWKADSSPVKAGVETTTPSKQSNNKYAASSYLSLTPEQWKSHRSYSCQVTHEGSTVEKTVAPTECS
modifications: DM1 coupled through the non-cleavable SMCC (MCC) linker; sites not stated
notes: also called 2A1CV5 ADC
- EC50 [4]: 2.9 nM
- cell viability IC50 (CellTiter-Glo, 96 h), H929 [5]: 1.9 nM DM1
- cell viability IC50 (CellTiter-Glo, 96 h), KMS11 [5]: 6.1 nM DM1
- cell viability IC50 (CellTiter-Glo, 96 h), KMS26 [5]: 3.1 nM DM1
- cell viability IC50 (CellTiter-Glo, 96 h), KMS28BM [5]: 3.5 nM DM1
- cell viability IC50 (CellTiter-Glo, 96 h), KMS28PE [5]: 4.7 nM DM1
- cell viability IC50 (CellTiter-Glo, 96 h), KMS34 [5]: 5 nM DM1
- cell viability IC50 (CellTiter-Glo, 96 h), MM1R [5]: 3.6 nM DM1
- cell viability IC50 (CellTiter-Glo, 96 h), MM1S [5]: 1.8 nM DM1
- cell viability IC50 (CellTiter-Glo, 96 h), U266 [5]: 2.4 nM DM1
- H929 cell growth inhibition IC50 (CellTiter-Glo, 96 h) [6]: 234 pM

B3: 2A1 Covariance 2 (2A1_R17G + C107T) (antibody, human IgG1, lambda)
heavy: EVQLVESGGGLVKPGGSLRLSCTASGFTFGDYALSWFRQAPGKGLEWVGVSRSKAYGGTTDYAASVKGRFTISRDDSKSFAYLQMNSLKTEDTAVYYCTSSGYSSGWTPFDYWGQGTLVTVSS[omitted - human IgG1 constant region]
light: QSVLTQPPSASGTPGQRVTISCSGSSSNIGSNTVNWYQQLPGTAPKLLIFNYHQRPSGVPDRFSGSKSGSSASLAISGLQSEDEADYYCAAWDDSLNGWVFGGGTELTVLGQPKAAPSVTLFPPSSEELQANKATLVCLISDFYPGAVTVAWKADSSPVKAGVETTTPSKQSNNKYAASSYLSLTPEQWKSHRSYSCQVTHEGSTVEKTVAPTECS
- ADCC EC50 [3]: 24.1 ng/mL

B4: 2A1 Covariance 18 (2A1_K14Q + R17G + T24A + G32S + F44V + G56S + D84N + F88T + T98A + C107A; 2A1_E144K VL) (antibody, human IgG1, lambda)
heavy: EVQLVESGGGLVQPGGSLRLSCAASGFTFSDYALSWVRQAPGKGLEWVSVSRSKAYGGTTDYAASVKGRFTISRDNSKSTAYLQMNSLKAEDTAVYYCASSGYSSGWTPFDYWGQGTLVTVSS[omitted - human IgG1 constant region]
light: QSVLTQPPSASGTPGQRVTISCSGSSSNIGSNTVNWYQQLPGTAPKLLIFNYHQRPSGVPDRFSGSKSGSSASLAISGLQSEDEADYYCAAWDDSLNGWVFGGGTKLTVLGQPKAAPSVTLFPPSSEELQANKATLVCLISDFYPGAVTVAWKADSSPVKAGVETTTPSKQSNNKYAASSYLSLTPEQWKSHRSYSCQVTHEGSTVEKTVAPTECS
- ADCC EC50 [3]: 359 ng/mL
